± gives the standard deviation. The entries are a selection whose mix differs from that of the whole data set.
Tested on: MIWI (PIWIL1) piRISC loaded with L1MC piRNA (30 nt)
Test: pre-steady-state target cleavage rate (min^-1); MIWI and MILI are mouse PIWI proteins and EfPiwi is from a freshwater sponge; tags in brackets are library labels; higher = faster piRNA-guided slicing of the target
Conditions: guide: L1MC piRNA 5'p-UAACUAAAUACUAUGCAAGCUGUAGGUCCU
Method in brief: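 In HEPES–potassium acetate buffer at 33 °C, […] transcribed, DNA-blocked target RNA library was mixed with 1 nM active affinity-purified piRISC carrying one synthetic guide, with or without 500 nM GTSF1 partner protein, for 0–8 or 0–960 min. Uncleaved targets were sequenced and normalised to depth and to weakly complementary targets; three trials were pooled and k3 was capped at 0.0001 min^-1. The pre-steady-state cleavage rate followed from a burst-and-steady-state fit.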

[1] = auxiliary factor: 500 nM mouse GTSF1
[2] = auxiliary factor: none (no GTSF1)
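Note: 1 nM active piRISC with 0.1 nM target library at 33 °C single turnover.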

| Sequence | pre-steady-state target cleavage rate [1] | pre-steady-state target cleavage rate [2] |
| --- | --- | --- |
| UCCUGGAACAGCUUGCAUAGAAUUUAGUUA | 0.269 ± 0.03 | 0.0275 ± 0.0063 |
| UCCUGCAUCAGCUUGCAUAGUAUUUAGUUA | 1.2 ± 0.066 | 0.0666 ± 0.014 |
| UCCACCUACAGCUUGCAUUGUAUUUAGAUA | 0.215 ± 0.025 | 0.00762 ± 0.002 |
| UCCACCAACAGCUUGCAUAGUAUUUAGAUA | 0.421 ± 0.041 | 0.022 ± 0.0053 |
| AGGAGCCUACAGCUUGCAUAGUAUUUAGUUA | 1.4 ± 0.072 | 0.0847 ± 0.013 |
| UCCUCCUACAGCUUGCAUAGUAUUAUAGUUA | 0.785 ± 0.033 | 0.0148 ± 0.0032 |
| UCCUGGAACAGCAUGCAUUGUAUUUAGUUA | 0.648 ± 0.033 | 0.0146 ± 0.0042 |
| AGGUCCUACAGCUUGCUUAGUAUUUAGUUA | 1.54 ± 0.069 | 0.0542 ± 0.011 |
| UCCACCUACAGCUUGCAUAGUAUUAAGAUA | 0.282 ± 0.043 | 0.00446 ± 0.0035 |
| UCCUGGUACAGCUUGCAUACUAUUUAGUAA | 0.14 ± 0.046 | 0.00856 ± 0.0034 |
| ACGACCUACAGCUUGCAUAGUAAUUAGUUA | 1.02 ± 0.036 | 0.035 ± 0.0076 |
| UCGACCUACAGCUUGCAUAGUGAUUUAGUUA | 0.0988 ± 0.015 | 0.00635 ± 0.0024 |
| AGGACCUACAGCUUGCAUAGUUAUUAGUAA | 0.225 ± 0.041 | 0.00977 ± 0.0039 |
| UCCUGCUUGAGCUUGCAUAGUAUUUACAAA | 0.175 ± 0.031 | 0.00374 ± 0.0022 |
| UCCUGCUACAGCUUGAAUAGUAUUUAGUUA | 0.765 ± 0.041 | 0.024 ± 0.0046 |
| UCGACCUUCAGCUUGGAUAGUAUUUAGUUA | 1.49 ± 0.05 | 0.0525 ± 0.0074 |
| UCCUCCUACAGCUUGCAUAGUAUUUUAGUUA | 1.04 ± 0.044 | 0.0227 ± 0.0055 |
| UCCUGGAUGAGCUUGCAUAGCAUUUAGUUA | 0.278 ± 0.032 | 0.0295 ± 0.0063 |
| UCCUGCUAGAGCUUGCAUAGUAUUUAGAUA | 0.242 ± 0.035 | 0.0124 ± 0.003 |
| UCCUGGAUGUGCUUGCAUAGUUUUUACUUA | 0.0121 ± 0.0054 | 0.00627 ± 0.0027 |

| Sequence | pre-steady-state target cleavage rate [1] | pre-steady-state target cleavage rate [2] |
| --- | --- | --- |
| UCCUCCUUCAGCUUGCAUAGUAUUUACUUA | 0.279 ± 0.03 | 0.0168 ± 0.0032 |
| UCCUGGAUCAGCUUGCAUUGUAUUUAGUAA | 0.379 ± 0.026 | 0.0124 ± 0.0045 |
| UCCUGGUACAGCUUGCAUAGUAUUAUAGUUA | 0.698 ± 0.085 | 0.0149 ± 0.0038 |
| UCCUCCUACAGCUUGCAUAGAAUUUACUUA | 0.281 ± 0.043 | 0.00732 ± 0.0027 |
| UCCUCCUACAGCUUGCAUUGUAUUUAGAUA | 0.312 ± 0.025 | 0.00758 ± 0.0015 |
| UCGACCUACAGCUUGCAUACUAUUUAGAUA | 0.113 ± 0.021 | 0.0116 ± 0.0026 |
| UGGACCUACAGCUUGCAUAGUAUUUUGUUA | 0.958 ± 0.067 | 0.0448 ± 0.0072 |
| UGGAGGUACAGCUUGCAUAGUAUUUAGUUA | 1.35 ± 0.064 | 0.0828 ± 0.015 |
| UGGACCUACAGUUUGCAUAGUAUUUAGUUA | 1.5 ± 0.088 | 0.0675 ± 0.013 |
| AGGACCUACAGCUUGCAAAGUAUUUAGAUA | 0.582 ± 0.057 | 0.0227 ± 0.0052 |
| UGGACCUACAGCUUGCAAAGUAUAUAGUUA | 0.895 ± 0.057 | 0.0204 ± 0.0062 |
| UCCUGGUACAGCUUGCAUAGUUUAUAGUUA | 0.0594 ± 0.017 | 0.0135 ± 0.004 |
| AGGACGAACAGCUUGCAUAGUAUUUAGAAA | 0.388 ± 0.054 | 0.0136 ± 0.0038 |
| AGGACCUAGAGCUUGCAAAGUAUUUAGUUA | 1.17 ± 0.054 | 0.0284 ± 0.0069 |
| UCGUGGUACAGCUUGCAUAGUAUUUAGUAA | 0.704 ± 0.05 | 0.0283 ± 0.0051 |
| UCCUGCUACAGCUUGCAUAGUAUUUUGAUA | 0.301 ± 0.037 | 0.00633 ± 0.0021 |
| UCCUGGAUGUGCUUGCAUAGUAGUUUAGUUA | 0.0105 ± 0.0051 | 0.00437 ± 0.0031 |
| UCCUGGAUGAGCUUGGAUAGUAUUUAGAUA | 0.0843 ± 0.015 | 0.00972 ± 0.0043 |
| UCGACCUACUGCUUGCAUUGUAUUUAGUUA | 0.958 ± 0.04 | 0.0353 ± 0.0089 |
| UCCUCCUACAGCUAGGAUAGUAUUUAGUUA | 1.3 ± 0.061 | 0.00664 ± 0.0017 |

| Sequence | pre-steady-state target cleavage rate [1] | pre-steady-state target cleavage rate [2] |
| --- | --- | --- |
| UCCUGGAUCAGCUUGCAAUCUAUUUAGUUA | 0.0129 ± 0.0034 | 0.00389 ± 0.0025 |
| UGGACGAACAGCUUGCAUAGUAUUUAGUUA | 1.17 ± 0.036 | 0.0856 ± 0.015 |
| AGGACCUACUGCUUGCAUAGAAUUUAGUUA | 0.426 ± 0.025 | 0.02 ± 0.0049 |
| UCCUCCUUCUGCUUGCAUAGUAUUUAGUUA | 1.18 ± 0.038 | 0.0546 ± 0.0091 |
| UCCUGGUACAGCUUGCAUAGUACUUUAGUUA | 0.281 ± 0.036 | 0.00815 ± 0.0026 |
| UGGACCUACAGCUUGCAUUGUAUUUUGUUA | 0.639 ± 0.045 | 0.0172 ± 0.0052 |
| UGGACCUAGAGCUUGCAUAGUAAUUAGUUA | 0.618 ± 0.045 | 0.0254 ± 0.0053 |
| UCCACGUACAGCUUGCAUAGUAUAUAGUUA | 0.693 ± 0.036 | 0.0318 ± 0.0064 |
| UCCUCCUACAGCAUGCAUAGUAUAUAGUUA | 0.786 ± 0.042 | 0.00795 ± 0.0022 |
| UCCACCUACAGCUUCGCAUAGUAUUUAGUUA | 0.911 ± 0.056 | 0.0118 ± 0.0027 |
| UGGACCAUGAGCUUGCAUAGUAUUUUCAAA | 0.14 ± 0.023 | 0.00304 ± 0.0023 |
| UGGACCUACAGCUUGCAUAGUAUUAAGAAA | 0.292 ± 0.051 | 0.00292 ± 0.0027 |
| AGGACCUACAGCUUGCAUAGUAUAUUAGUUA | 1.18 ± 0.097 | 0.0609 ± 0.015 |
| UCCUCCUACAGCUUGCAUAGUAUGUUAGUUA | 0.258 ± 0.027 | 0.0111 ± 0.0027 |
| UCCUGGUACAGCUGUGCAUAGUAUUUAGUUA | 0.688 ± 0.047 | 0.0171 ± 0.0052 |
| UCCUGGAUCAGCUUGCAUAGUAUAAUGUUA | 0.299 ± 0.021 | 0.00843 ± 0.0028 |
| UCGACCUACAGCAUGCAUAGUUUUUAGUUA | 0.465 ± 0.025 | 0.0154 ± 0.0029 |
| UCGACCUACAGCUUGCAUAGUAUUAAGUUA | 0.761 ± 0.04 | 0.0317 ± 0.0061 |
| UCCACCACAGCUUGCAUAGUAUUUAGUUA | 0.992 ± 0.035 | 0.0505 ± 0.0088 |
| UCCUGGAUGUCCUUGCUUAGUAUUUAGUUA | 0.00931 ± 0.0036 | 0.00504 ± 0.0017 |

Reference: the supplement of paper PMC10338343
